{"source": "PubChem BioAssay AID2546", "about": "(National Center for Advancing Translational Sciences (NCATS), 2010)", "note": "Among all 310,000 compounds or so, about 11,000 (3.5%) were called active. Inconclusive results, whose numbers are uncertain, are shown with a selection of clear calls. Calls follow the shape of the dose curve; as a rule, active = well fitted inhibition curve with a large enough effect; inconclusive = small, poorly fitted or top-dose-only effect, or effect the other way; inactive = flat fitted curve, though single readings scatter. No potency is given beside an inconclusive call; the fits are too rough. % is scaled to controls: 0 for no effect and ±100 for the full control effect; potency is read from the fitted curve at half-maximal effect; tags tell the direction and shape of the fitted curve.", "data": [{"test": "VP16 counterscreen qHTS for inhibitors of ROR gamma transcriptional activity;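 also: Gal4-VP16 expression switched on by copper sulfate through the metallothionein promoter; nearly all actives have a fitted effect of over 50% in size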", "conditions": "Drosophila S2 Gal4-VP16 UAS-luciferase, luminescence, 20 h; activity, negative = inhibition: at 53.6 µM (top of the series)", "values": [{"smiles": "CC(C)=CCCC1(C)C=Cc2c(c(C)cc3c2[nH]c2cc(O)ccc23)O1", "note": "(stereo unspecified)", "Potency": "inconclusive [inhibitor, single point]"}, {"smiles": "Cc1cc(-c2nnc(SCCC(=O)Nc3ccccc3)o2)no1", "Potency": "inconclusive [inhibitor, single point]"}, {"smiles": "COc1cc(NC(=S)NCc2ccco2)cc(OC)c1OC", "Potency": "active: 20 µM"}, {"smiles": "CCCC(=O)N1CCCC(c2nc(-c3cccc(OC)c3)no2)C1", "note": "(stereo unspecified)", "activity, negative = inhibition": "inactive: -0.86%"}, {"smiles": "COC(=O)c1ccc(C(=O)OCc2nc3cc4ccccc4cc3[nH]2)cc1", "Potency": "inconclusive [activator, single point]"}, {"smiles": "CCOC(=O)C1CCCN(C(=O)CNS(=O)(=O)c2ccc(Br)s2)C1", "note": "(stereo unspecified)", "activity, negative = inhibition": "inactive: -3.6%"}, {"smiles": "CC(=O)N1CCc2cc(S(=O)(=O)NCCCN3CCC(C)CC3)ccc21", "activity, negative = inhibition": "inactive: 7.5%"}, {"smiles": "Cc1ccc(OCc2ccc(C(=O)Nc3nc4ccccc4n3C)o2)c([N+](=O)[O-])c1", "Potency": "active: 3.16 µM"}, {"smiles": "COc1ccc(/C=N/NC(=O)CCn2cnc3ccccc32)cc1", "Potency": "inconclusive [inhibitor, single point]"}, {"smiles": "N#C/C(=C/c1ccc(F)cc1)C(N)=S", "activity, negative = inhibition": "inactive: -7.97%"}, {"smiles": "Cc1ccc(-c2nc(CNC(=O)c3ccco3)cs2)cc1", "Potency": "inconclusive [inhibitor, single point]"}, {"smiles": "COc1ccc(CNS(=O)(=O)c2cc(-c3cc(C)no3)ccc2C)cc1OC", "activity, negative = inhibition": "inactive: -4.24%"}, {"smiles": "COc1ccc(-n2cc(-c3ccc(OC)c(OC)c3)[nH]c2=S)cc1", "Potency": "active: 10 µM"}, {"smiles": "COc1ccc(CNC(=O)c2c[nH]c3ccccc3c2=O)cc1", "activity, negative = inhibition": "inactive: -0.585%"}, {"smiles": "O=C(CCCn1c(=O)oc2ccccc21)N1CCN(c2ccccn2)CC1", "activity, negative = inhibition": "inactive: 13.4%"}, {"smiles": "COc1ccc(-n2nc([N+](=O)[O-])c(=NCCCN3CCCC3=O)n2O)cc1", "Potency": "inconclusive [activator, partial curve]"}, {"smiles": "CC(=O)c1c(C)[nH]c(C(=O)OCC(=O)Nc2ccc(C)cc2[N+](=O)[O-])c1C", "Potency": "inconclusive [inhibitor, full curve, poor fit]"}, {"smiles": "CC(C)(C)c1ccc(-c2cc(C(=O)NNC(=O)Nc3ccccc3)c3ccccc3n2)cc1", "Potency": "inconclusive [inhibitor, full curve]"}, {"smiles": "Cc1[nH][nH]c(=O)c1C(c1c(C)[nH][nH]c1=O)c1cn(Cc2cccc3ccccc23)c2ccccc12", "activity, negative = inhibition": "inactive: -5.57%"}, {"smiles": "CC(C)=CCC/C(C)=C/COc1ccc2ccc(=O)oc2c1", "Potency": "inconclusive [activator, partial curve]"}, {"smiles": "CCCCCCCCOc1c(OC)cc(/C=C/C(=O)N2CCN(c3ccc(C)c(C)c3)CC2)cc1OC", "activity, negative = inhibition": "inactive: -0.282%"}]}]}
